From PubChem BioAssay AID1461 (National Center for Advancing Translational Sciences (NCATS), 2008)
The campaign covered roughly 220,000 compounds. About 2,300 (1%) were called active. Inconclusive results, whose numbers are uncertain, are shown with a selection of clear calls. The call rests on the fitted dose curve; in most records, active means well fitted inhibition curve with a large enough effect; inconclusive means small, poorly fitted or top-dose-only effect, or effect the other way; inactive means no such curve, though single readings can be large or run the other way. Potencies of inconclusive entries are left out as doubtful fits.

Target: Neuropeptide S receptor (Homo sapiens) (UniProt Q6W5P4)
UniProt Q6W5P4, sequence (Q6W5P4 whole entry, looked up): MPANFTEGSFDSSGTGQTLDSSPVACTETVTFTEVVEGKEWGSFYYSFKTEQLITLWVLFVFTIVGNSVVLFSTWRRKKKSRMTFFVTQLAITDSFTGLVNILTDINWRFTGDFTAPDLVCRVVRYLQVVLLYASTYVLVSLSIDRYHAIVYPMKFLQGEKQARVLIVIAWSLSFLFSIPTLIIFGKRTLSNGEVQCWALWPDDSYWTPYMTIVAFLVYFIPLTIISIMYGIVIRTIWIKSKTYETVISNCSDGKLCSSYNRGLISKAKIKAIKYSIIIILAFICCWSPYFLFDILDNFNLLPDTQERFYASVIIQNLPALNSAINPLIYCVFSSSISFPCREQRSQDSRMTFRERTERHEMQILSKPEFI
Assay: qHTS Assay for Antagonists of the Neuropeptide S Receptor: cAMP Signal Transduction; further: nearly all actives have a fitted effect of over 50% in size
Details: CHO-NPSR cells, cAMP TR-FRET, antagonist mode; series mostly up to 38.3 µM
Potency means the concentration at half of the fitted maximal effect; tags describe the fitted curve by direction and shape.

Structure (SMILES) | Potency
COc1ccc(C(=O)Nc2cc(C)nn2-c2nc3ccccc3[nH]2)c(OC)c1 | inactive
CCOc1cc(/C=N/NC(=O)CCc2n[nH]c(=O)[nH]c2=O)ccc1O | inactive
O=C(Cn1cc2c(n1)CCCC2)NCc1ccccn1 | inconclusive [inhibitor, single point]
O=C1CCOc2cc(OCc3ccccc3)ccc21 | inconclusive [activator, full curve, poor fit]
CCOC(=O)CNC(=O)CSc1nnc(-c2cccc(C)c2)n1-c1ccc(OC)cc1 | inconclusive [inhibitor, partial curve]
Cc1cccc2cc(CN(Cc3cccs3)C(c3nnnn3C3CCCC3)C(C)C)c(=O)[nH]c12 (centres undefined) | inconclusive [inhibitor, single point]
CCCc1nc2ccccc2n1CCOc1ccccc1 | inactive
O=C(CSc1nnc(-c2cccnc2)n1Cc1ccco1)c1ccc2ccccc2c1 | inactive
CCC/C(O)=C1\C(=O)CC(C)(C)CC1=Nc1ccccc1OC | inconclusive [inhibitor, single point]
COc1ccc(OC)c(C2C3=C(N=C4SCC(=O)N42)c2ccccc2CC3)c1 (centres undefined) | inconclusive [inhibitor, full curve, poor fit]
COc1cc(C(=O)NS(=O)(=O)c2ccccc2C)ccc1Cc1cn(C)c2ccc(NC(=O)OC3CCCC3)cc12 | inconclusive [inhibitor, single point]
C=CCNc1nnc(SC2CC(=O)N(c3ccc(OCCC)cc3)C2=O)s1 (centres undefined) | inactive
N=c1c2c(-c3ccccc3)c(-c3ccccc3)n(Cc3ccco3)c2ncn1CCCn1ccnc1 | inactive
Cc1cccc(OCCCC(=O)N2CCCc3ccccc32)c1C | inconclusive [inhibitor, single point]
COc1ccc(C)cc1NC(=O)CC1COc2ccccc2O1 (centres undefined) | inactive
CCOC(=O)C1=C(c2ccccc2)O/C(=C(/C(=O)OC)C(F)(F)F)S1 | inconclusive [inhibitor, single point]
Cn1c(Cl)c(/C=N/OC(=O)c2ccccc2Cl)c2ccccc21 | inconclusive [inhibitor, full curve, poor fit]
O=C(Nc1nc2n(n1)C(c1ccccc1)CC(c1ccc(Cl)cc1)N2)c1ccco1 (centres undefined) | inconclusive [inhibitor, single point]
O=C(NNC(=O)c1cc(-c2ccc(Cl)cc2Cl)nc2ccccc12)Nc1ccccc1 | inconclusive [inhibitor, single point]
O=C(Nc1ccc(Cl)cc1)N1CCC(c2nc(-c3ccc(F)cc3)no2)CC1 | inconclusive [inhibitor, single point]
Oc1ccccc1N=Cc1sc2ccccc2c1Cl | inactive
O=C(Nc1ccc(N2CCN(C(=O)c3ccccc3)CC2)cc1)c1ccc([N+](=O)[O-])o1 | inconclusive [activator, partial curve]
CCOc1ccc(N(C(C)C(=O)N/N=C(\C)c2cccc(NC(=O)c3ccccc3)c2)S(C)(=O)=O)cc1 (centres undefined) | inconclusive [inhibitor, partial curve, poor fit]

Structure (SMILES) | Potency
O=S(=O)(c1cccs1)N1CN(Cc2ccc(F)cc2)c2nc3ccccc3nc21 | inconclusive [inhibitor, partial curve]
O=C(CC(=O)c1cc(Cl)ccc1O)c1ccccc1 | inconclusive [inhibitor, single point]
COc1cc(NC(=O)c2c(F)c(F)c(F)c(F)c2F)c(OC)cc1Cl | inconclusive [inhibitor, partial curve]
N#Cc1cc([N+](=O)[O-])c(-n2nnc3ccccc32)c([N+](=O)[O-])c1 | inconclusive [inhibitor, partial curve, poor fit]
CCCCC(=O)NC(c1ccccc1Cl)c1c(O)ccc2ccccc12 (centres undefined) | inconclusive [inhibitor, single point]
CC(=O)CCC(=O)N1CCCC(CNC(=O)c2ccc(-c3ccccc3)cc2)C1 (centres undefined) | inactive
N#Cc1c(-c2cccc(F)c2)cc(-c2ccccc2)nc1Br | inconclusive [inhibitor, single point]
CCOC(=O)/C(C#N)=C/c1c(N2CCN(Cc3ccc4c(c3)OCO4)CC2)nc2c(C)cccn2c1=O | inconclusive [activator, full curve, poor fit]
COc1ccc(/C=C/c2cc(-c3ccc(C)cc3)o[n+]2C)cc1 | inactive
O=c1c2c3c(sc2n(CCN2CCCCC2)c(=O)n1Cc1ccco1)CCCCC3 | inconclusive [inhibitor, single point]
Cc1cc(C)cc(NC(=O)CSc2nnc(-c3ccccc3)n2N)c1 | inconclusive [inhibitor, single point]
CCOc1ccc2c(c1)OC(c1ccc(OC)cc1)(C(F)(F)F)NC2=O (centres undefined) | inconclusive [activator, single point]
O=C(NC(NC(=S)Nc1c(Cl)cc(Cl)cc1Cl)C(Cl)(Cl)Cl)OCc1ccccc1 (centres undefined) | inconclusive [inhibitor, single point]
CC1(C)CC2CC(C)(CN2C(=O)COc2cccc3ccccc23)C1 (centres undefined) | inconclusive [inhibitor, single point]
Cc1ccc(N2N=C(c3ccc(F)cc3)CC2c2ccco2)cc1 (centres undefined) | inconclusive [activator, single point]
FC(F)(F)c1cccc(NCc2cn3cccnc3n2)c1 | inactive
COc1ccc(OC)c(C2=NOC(C(=O)NCC3CCCO3)C2)c1 (centres undefined) | inactive
O=S(=O)(c1ccc(F)cc1)N1CC2CCCN2c2ccc(C(F)(F)F)cc21 (centres undefined) | inconclusive [inhibitor, single point]
N#CC(C#N)=C1C=CC=CN1/C(=C\c1ccccc1Cl)C(=O)c1ccccc1 | active: 7.94 µM
N#C/C(C(N)=O)=c1/ccc2c(c1)N1C3=C(CCCC3)CC3CCCCC31N=2 (centres undefined) | active: 10 µM
CCOC(=O)C1=C(Cn2cnc3ccccc32)NC(=O)NC1c1cc(C)ccc1C (centres undefined) | inconclusive [inhibitor, single point]
Cc1nn(-c2ccccc2)c2c1C(c1cccnc1)N1C=C(S(=O)(=O)N3CCCCC3)C=CC1=N2 (centres undefined) | inconclusive [inhibitor, single point]
COc1ccc(C2Nc3ccccc3C(=O)N2c2ccc(F)cc2)cc1CSc1ccccn1 (centres undefined) | inconclusive [inhibitor, partial curve, poor fit]

Structure (SMILES) | Potency
O=C1N=C(N2CCCC2C(=O)O)S/C1=C\c1ccco1 (centres undefined) | inactive
c1ccc(-c2nc(NCC3CCCO3)c3oc4ccccc4c3n2)cc1 (centres undefined) | inconclusive [inhibitor, single point]
Cc1cc(NC(=O)c2ccc3c(c2)C(=O)N(CCC(C)C)C3=O)no1 | inactive
CCOC(=O)C1=C(O)/C(=C/c2ccc(-c3ccccc3C(=O)O)o2)SC1=Nc1ccc(C)cc1 | inactive
CC(=O)c1cccc2c(O)c(C3=Nc4ccccc4C3=O)[nH]c12 | inconclusive [inhibitor, single point]
O=C(Nc1nccs1)c1cccc(N2C(=O)c3cccc4c([N+](=O)[O-])ccc(c34)C2=O)c1 | inconclusive [inhibitor, single point]
Cn1c(SCc2nc3ccccc3[nH]2)nnc1-c1ccccn1 | inactive
CN(C)c1ccc(N/C=C/C(=O)c2ccco2)cc1 | inconclusive [inhibitor, partial curve, poor fit]
CC1(C)CC2CC(C)(CN2/C=N/c2sc3c(c2C#N)CC(C)(C)NC3(C)C)C1 (centres undefined) | inconclusive [activator, partial curve]
N=c1n(CC(=O)c2cccs2)c2ccccc2n1Cc1ccccc1 | inconclusive [inhibitor, single point]
Cc1ccc(/C=N/NC(=S)NC(C)C)o1 | inconclusive [activator, partial curve]
O=C1c2ccccc2S(=O)(=O)N1CC1CC(c2ccccc2Cl)=NO1 (centres undefined) | inactive
Cc1ccccc1C(=O)NC(=S)Nc1ccc(Oc2ccc(Cl)cc2)cc1 | inconclusive [inhibitor, single point]
COc1cc(C(=O)NCCCNc2ccc([N+](=O)[O-])cc2)cc(OC)c1OC | inactive
O=C1/C(=C/c2ccc([N+](=O)[O-])cc2)C=C(c2ccccc2)N1c1ccc(O)cc1 | active: 12.6 µM
O=C(CSc1ccccc1C(=O)NCc1ccccc1)NC1CCCCCCC1 | inactive
COc1ccc(NC(=O)c2c(-c3ccccc3Cl)noc2C)c(OC)c1 | inconclusive [inhibitor, single point]
COc1ccccc1-c1nc(=S)c(C(C)=O)c(C)[nH]1 | inactive
O=C(Nc1ccc(Cl)cc1)c1cc(S(=O)(=O)N2CCOCC2)cs1 | inactive
CN1/C(=C\C=C(/C#N)C(=O)Nc2ccc(Cl)cc2)C(C)(C)c2ccccc21 | inactive
O=C(OCn1ncc(Cl)c(Cl)c1=O)c1ccc(F)cc1 | inconclusive [inhibitor, partial curve]
Cc1cc(C)c(S(=O)(=O)c2ccccc2C)c(OCC(C)(C)C)n1 | inconclusive [inhibitor, partial curve]
CCOC(=O)c1c(NC(=O)c2cccs2)sc2c1CCC2 | inconclusive [inhibitor, single point]
